Structures are written as SMILES. Values joined by “and” are separate entries in the source; they are usually repeats but may differ in a detail not shown here. Equal values may be shown once.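 Interpolation was linear, between the two tested concentrations surrounding the appropriate level; five concentrations were tested over 48 hours in 96-well plates. The concentration for 50% growth inhibition is given as GI50.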 Active and inactive are the calls of the source. Rule as the data show it: active = GI50 up to about 1.1 µM and inactive = higher.

From ChEMBL document CHEMBL1201862, “PubChem BioAssay data set” (2004) come the findings set out here.

The assay relates to NCI-H322M. As to the kind of experiment: NCI anticancer screen, dose series, 48 h.
With `CCCCCN(CCCCC)C(=O)[C@@H](CCC(=O)O)NC(=O)c1cc2ccccc2[nH]1`, the GI50 is inactive: 30.5 µM.

In the case of `O=[N+]([O-])c1ccc(/C=C/c2cc(-c3ccccc3)nc3ccc4ccccc4c23)cc1`, the GI50 was inactive: > 100 µM.

In the case of `CCn1c2ccccc2c2nnc(NCCCO)nc21`, the GI50 is inactive: > 100 µM.

Regarding `O=[N+]([O-])c1ccc(-[n+]2ccc3ccccc3c2)c([N+](=O)[O-])c1`, the GI50 was inactive: 12.9 µM.

As for `CN(CCNC(=O)c1c[nH]c2c1ccc1ccccc12)CCNC(=O)c1c[nH]c2c1ccc1ccccc12`, the GI50 is inactive: 1.97 µM.

With `O=C(CCN1CCOCC1)Nc1ccc2sc3ccccc3c(=O)c2n1`, the GI50 is inactive: 53.5 µM.

`COC(=O)c1c(C)[n+]([O-])c2cc(Cl)c(Cl)cc2[n+]1[O-]`: the GI50 was inactive: 20.7 µM.

For the compound `COc1cc(Cl)c2c3c(c(C(=O)c4ccccc4)oc13)CCC2`, the GI50 was inactive: > 100 µM.

As to `CC1=NN(C(=O)CC(=O)N(C(=O)c2ccccc2Cl)c2ccc(C)cc2)C(=O)C1/N=N/c1ccc([N+](=O)[O-])cc1` (stereo unspecified), the GI50 was inactive: > 69.2 µM.

As for `Cc1cc(C)nc(NS(=O)(=O)c2ccc(NC(=O)c3cccc4c(Nc5ccc(S(=O)(=O)N=C(N)N)cc5)c5ccc(Cl)cc5nc34)cc2)n1`, the GI50 was inactive: 53.6 µM.

Turning to `O=C1/C(=C/c2ccc(OC(=O)c3ccc(Cl)cc3)cc2)CCC/C1=C\c1ccc(OC(=O)c2ccc(Cl)cc2)cc1`, the GI50 is inactive: > 100 µM.

Regarding `O=C(/C=C/c1ccccc1)CCN1CCCCC1`, the GI50 is inactive: > 100 µM.

For the compound `COc1cccc(C2CC(C)(N3CCCC3)Oc3cc4c(cc32)OCO4)c1O` (stereo unspecified), the GI50 was inactive: 40.2 µM.

On to `Cc1ccc2cccc(OC(=O)c3cc4c(cc3Cl)Sc3nccn3S4(=O)=O)c2n1`, for which the GI50 was inactive: 13.8 µM.

For `COc1ccc(C2c3cc4c(cc3OC(NNS(=O)(=O)c3ccc(C)cc3)C2C)OCO4)cc1` (stereo unspecified), the GI50 was inactive: > 100 µM.

In the case of `O=C(Nc1nncs1)NS(=O)(=O)n1c(=S)sc2ccccc21`, the GI50 was inactive: > 100 µM.

As for `COCN1C(=O)C2CC(/C=C/C(N)=O)=CN2C(=O)c2ccccc21` (stereo unspecified), the GI50 is inactive: > 100 µM.

With `COc1cc2c3cc1Oc1c(OC)c(OC)cc4c1C(Cc1ccc(O)c(c1)Oc1ccc(cc1)CC3N(C)CC2)CN(C)C4` (stereo unspecified), the GI50 is inactive: 17.3 µM.

Turning to `CC(C)(C)C1=C(Br)C(OC(=O)C(F)(F)F)(C(C)(C)C)OP1(=O)c1ccccc1` (stereo unspecified), the GI50 was inactive: 46.3 µM.

With `COC(=O)c1nc(-c2ccc(Cl)c(Cl)c2)nc2ccc(Cl)cc12`, the GI50 is inactive: > 100 µM.

For `[O-][S+]1c2ccccc2N=C(c2ccc3ccccc3c2)CC1C1=CC=CCC1` (stereo unspecified), the GI50 was inactive: 23.2 µM.

`CCOC(=O)/C(C(C)=O)=C1/N[C@H](C(=O)OCC)CS1`: the GI50 is inactive: > 100 µM.

On to `OCCN1CCN2C=C(C3CCCC4N(CCO)CCN34)CCC21` (stereo unspecified), for which the GI50 was inactive: > 100 µM.

On to `CC1=NN(c2nc(N)nc(/C(C#N)=C/c3ccncc3)n2)C(C)(C)C1`, for which the GI50 is inactive: > 100 µM.

As for `FC(F)(F)c1cccc(C2SCc3nc4ccccc4n32)c1` (stereo unspecified), the GI50 was inactive: > 100 µM.

With `O=C(O)C12CCC(CC1=O)C2` (stereo unspecified), the GI50 is inactive: > 100 µM.

As to `C[C@H]1S[C@@H](c2ccc(Cl)cc2Cl)N(NC(=O)c2ccncc2)C1=O`, the GI50 was inactive: > 100 µM.

Take `c1ccc2c3c(ccc2c1)-c1[nH]ncc1CCO3`: the GI50 is inactive: 43.7 µM.

On to `OCC1OC(O[C@H]2CN3[C@H](O)[C@@H](O)[C@H](O)[C@H]3C2O)C(O)C(O)C1O` (stereo partly specified), for which the GI50 was inactive: > 100 µM.

`CCOC(=O)/C=C(\C(=O)OCC)n1ccc(=O)n(Cc2cn(CCCCOC(C)=O)nn2)c1=O`: the GI50 is inactive: 19.5 µM.

For `COC(=O)c1cc(C)ccc1C1CN=NC12Cc1c(C)cc(C)cc1C2=O` (stereo unspecified), the GI50 is inactive: 33 µM.

As for `O=c1cc(O)ccn1C1C=C(CO)C(O)C1O` (stereo unspecified), the GI50 was inactive: > 625 µM.

Consider `CC(=O)OCC1OC(SC2=N/C(=C\c3ccc(Br)s3)C(=O)N2CN2CCOCC2)C(OC(C)=O)C(OC(C)=O)C1OC(C)=O` (stereo unspecified), for which the GI50 is inactive: 17.2 µM.

Consider `OCC1CC2C=CCC(C2)C1` (stereo unspecified), for which the GI50 was inactive: > 100 µM.

Consider `O=C1CSC(c2ccccc2O)N1c1nc2cc3sc(N4C(=O)CSC4c4ccccc4O)nc3cc2s1` (stereo unspecified), for which the GI50 is inactive: > 88.3 µM.

Turning to `CC(NC(=O)/C(=C/c1ccccc1O)NC(=O)c1ccccc1)C(=O)O` (stereo unspecified), the GI50 was inactive: 55.7 µM.

Take `Nc1cc2c3c(cccc3c1)C(=O)N(CCN1CCN(CCN3C(=O)c4cccc5cc(N)cc(c45)C3=O)CC1)C2=O`: the GI50 was inactive: > 100 µM.

Take `CC/C(=C\c1ccc(Cl)c(Cl)c1)[N+](=O)[O-]`: the GI50 was inactive: 14.2 µM.

Take `O=C1C(Cl)=C(N2CCN(c3ccccn3)CC2)C(=O)c2c(O)ccc(O)c21`: the GI50 is inactive: 2.64 µM.

For `COc1ccccc1OCc1nnc(SCC(=O)O)n1-c1ccccc1`, the GI50 is inactive: > 100 µM.

As for `CC1=NN(C(=O)CC(=O)Nc2ccccc2F)C(=O)C1/N=N/c1ccccc1[N+](=O)[O-]` (stereo unspecified), the GI50 is inactive: > 100 µM.

Turning to `NC(=O)C#CC(N)=O`, the GI50 is inactive: > 100 µM and inactive: 187 µM.

As to `COc1cc(C2C(Cl)C(=O)N2c2c(C)n(C)n(-c3ccccc3)c2=O)ccc1O` (stereo unspecified), the GI50 is inactive: 58.3 µM.

Regarding `Cn1cc(-c2n[nH]c(-c3ccc(Cl)cc3)nc2=O)c2ccccc21`, the GI50 was inactive: 2.12 µM.

As to `N#CCCC1(CCC#N)CCc2ccccc2C1=O`, the GI50 is inactive: > 100 µM.

Turning to `COc1cc(/C=C(\C#N)C(=O)c2ccccc2)ccc1OCc1ccccc1`, the GI50 is inactive: > 100 µM.

Regarding `CCOC(=O)c1c(-c2ccccc2)oc(-c2ccccc2)c1C(=O)OCC`, the GI50 is inactive: > 100 µM.

Turning to `COC(=O)CCC(NC(=S)N/N=C(\C)c1nccs1)C(=O)OC` (stereo unspecified), the GI50 is inactive: 60.1 µM.

Turning to `O=[N+]([O-])C(=C(Cl)Cl)C(Cl)=C(Cl)Cl`, the GI50 is inactive: 4.7 µM.

For the compound `CC(C)(C)OC(=O)N(O)[C@@H]1CC[C@H](n2cnc3c(N)ncnc32)C1`, the GI50 is inactive: > 100 µM.

As to `c1ccc(CCN2CCN=C2Cc2ccccc2)cc1`, the GI50 is inactive: > 100 µM.

`O=C(/C=C/c1ccc(Cl)c(Cl)c1)c1ccccc1Cl`: the GI50 was inactive: 17.1 µM.

Regarding `CC1=[N+](C)CCN1C`, the GI50 is inactive: > 100 µM.

With `FC(F)(F)c1cc(N(C2c3ccccc3C=Cc3ccccc32)P(Cl)Cl)cc(C(F)(F)F)c1`, the GI50 was inactive: 22.6 µM.

On to `Nc1nccc(NCC2(CO)CCC2)n1`, for which the GI50 is inactive: > 100 µM.

Consider `CCOC(=O)[C@@]12C(C)=CC(=O)O[C@]1(C)C1C(=O)NC(=O)C12` (stereo partly specified), for which the GI50 was inactive: > 100 µM.

For `CC1(C)CC(=O)C2=C(C1)c1c(ccc3ccccc13)NC2c1cn(Cc2ccc(Cl)cc2)c2ccccc12` (stereo unspecified), the GI50 is inactive: 67.9 µM.

As for `Cc1cc(C)c(C#N)c(SC(=S)NC(=O)c2ccccc2)n1`, the GI50 was inactive: > 100 µM.

`CC(C)(C)CNCCCNc1ccc(Cl)cc1`: the GI50 was inactive: 36.2 µM.

Consider `NS(=O)(=O)c1nnc(NSc2ccc([N+](=O)[O-])cc2)s1`, for which the GI50 is inactive: > 100 µM.

Regarding `CCOC(=O)C(C(=O)OCC)C(NC(=O)Nc1cc(C(F)(F)F)ccc1OC)(C(F)(F)F)C(F)(F)F`, the GI50 is inactive: 26.7 µM.

Turning to `COC1CC(n2ccc(=O)[nH]c2=O)OC1CO` (stereo unspecified), the GI50 was inactive: > 100 µM.

In the case of `C=CCOc1ccc(C2C(C(=O)OCC)C(=O)CC(C)(O)C2C(=O)OCC)cc1OC` (stereo unspecified), the GI50 is inactive: > 100 µM.

On to `COc1ccc2[nH]c3c(c2c1)CC(=O)N1CCC[C@H](C1)CC31OCCCO1`, for which the GI50 is inactive: > 100 µM.

In the case of `Cn1c(-c2ccc[se]2)ccc1-c1ccc(C=O)[se]1`, the GI50 is inactive: > 100 µM.

On to `CC(=O)NC(C=O)C(O[C@H](C)C(=O)NC(C)C(=O)NC(CCC(N)=O)C(=O)OCc1ccccc1)C(O)C(O)COC(=O)CCNc1c2ccccc2nc2cccc([N+](=O)[O-])c12` (stereo partly specified), for which the GI50 is inactive: 3.03 µM.

On to `COc1cc2cc3c4cc(OC)c(OC)cc4cc[n+]3c(C)c2cc1OC.O=C([O-])CS(=O)(=O)O`, for which the GI50 was inactive: 37.3 µM.

On to `CCNC(CCCC(NCC)P(=O)(O)O)P(=O)(O)O` (stereo unspecified), for which the GI50 is inactive: > 100 µM.

For `O=c1c2cc(I)ccc2nc(-c2cccs2)n1-c1ccc(O)cc1`, the GI50 was inactive: 10.5 µM.

On to `C/C(=N\n1c(Cc2ccccc2)n[nH]c1=O)c1ccc([N+](=O)[O-])cc1`, for which the GI50 was inactive: > 100 µM.

Regarding `O=[N+]([O-])c1ccc(/C=C(/c2ccc([N+](=O)[O-])o2)S(=O)(=O)c2ccccc2)cc1`, the GI50 was inactive: > 100 µM.

Regarding `Cc1ccccc1/N=N/c1c(-c2ccccc2)nn(C(=O)CC(=O)Nc2cccc(Cl)c2)c1-c1ccccc1`, the GI50 is inactive: 27.7 µM.

As for `CCOC(=O)c1cc(-c2cc(OC)c(OC)c([N+](=O)[O-])c2)c([N+](=O)[O-])n1C`, the GI50 was inactive: > 10 µM.

Turning to `O=C1c2cc(CCl)sc2C(=O)c2ccsc21`, the GI50 is inactive: 1.24 µM.

Consider `COC(=O)CCC(NC(=S)N/N=C(\C)c1cnc2ccccc2n1)C(=O)OC` (stereo unspecified), for which the GI50 was inactive: 28.4 µM.

Turning to `CC(=O)c1c(C)cn(S(=O)(=O)NC(=O)Nc2nncs2)c1C`, the GI50 was inactive: > 100 µM.

For the compound `Cc1ccc(S(=O)(=O)N(/N=C/C=C/c2ccccc2)c2nnc(-c3ccccc3)c(-c3ccccc3)n2)cc1`, the GI50 was inactive: 11.8 µM.

On to `C[N+]1(CCC[N+]2(C)CC3C4C=CC(CC4)C3C2)CCOCC1` (stereo unspecified), for which the GI50 was inactive: > 100 µM.

For `CC(C)=CCCC1(C)C=Cc2c(c(C)cc3c2[nH]c2cc(O)ccc23)O1` (stereo unspecified), the GI50 was inactive: > 25 µM.

For the compound `CCC1(O)C(=O)OCc2c1cc1n(c2=O)Cc2cc3cc(OC)c(OC)cc3nc2-1` (stereo unspecified), the GI50 was inactive: 87.3 µM.

On to `CN(C)Cc1cc(C(=O)/C=C/c2ccc(Br)cc2)cc(CN(C)C)c1O`, for which the GI50 is inactive: 11 µM.
